# Reference: article PMC4336329 (PLoS ONE, 2015)
# Hit rate of the full screen: of about 310,000 compounds, about 14,000 (4.5%) showed an effect of 50% or more. The effect is printed as a negative number. This is one part of the list.
# Molecular target: human ether-à-go-go-related gene (hERG) potassium channel (human, UniProt Q12809)
# Test: primary screen, population patch clamp on CHO cells stably expressing hERG
# 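Note: peak tail current of the secondary pulse compared with the same well before compound.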
# human ether-à-go-go-related gene (hERG) potassium channel, sequence (Q12809 whole entry, looked up): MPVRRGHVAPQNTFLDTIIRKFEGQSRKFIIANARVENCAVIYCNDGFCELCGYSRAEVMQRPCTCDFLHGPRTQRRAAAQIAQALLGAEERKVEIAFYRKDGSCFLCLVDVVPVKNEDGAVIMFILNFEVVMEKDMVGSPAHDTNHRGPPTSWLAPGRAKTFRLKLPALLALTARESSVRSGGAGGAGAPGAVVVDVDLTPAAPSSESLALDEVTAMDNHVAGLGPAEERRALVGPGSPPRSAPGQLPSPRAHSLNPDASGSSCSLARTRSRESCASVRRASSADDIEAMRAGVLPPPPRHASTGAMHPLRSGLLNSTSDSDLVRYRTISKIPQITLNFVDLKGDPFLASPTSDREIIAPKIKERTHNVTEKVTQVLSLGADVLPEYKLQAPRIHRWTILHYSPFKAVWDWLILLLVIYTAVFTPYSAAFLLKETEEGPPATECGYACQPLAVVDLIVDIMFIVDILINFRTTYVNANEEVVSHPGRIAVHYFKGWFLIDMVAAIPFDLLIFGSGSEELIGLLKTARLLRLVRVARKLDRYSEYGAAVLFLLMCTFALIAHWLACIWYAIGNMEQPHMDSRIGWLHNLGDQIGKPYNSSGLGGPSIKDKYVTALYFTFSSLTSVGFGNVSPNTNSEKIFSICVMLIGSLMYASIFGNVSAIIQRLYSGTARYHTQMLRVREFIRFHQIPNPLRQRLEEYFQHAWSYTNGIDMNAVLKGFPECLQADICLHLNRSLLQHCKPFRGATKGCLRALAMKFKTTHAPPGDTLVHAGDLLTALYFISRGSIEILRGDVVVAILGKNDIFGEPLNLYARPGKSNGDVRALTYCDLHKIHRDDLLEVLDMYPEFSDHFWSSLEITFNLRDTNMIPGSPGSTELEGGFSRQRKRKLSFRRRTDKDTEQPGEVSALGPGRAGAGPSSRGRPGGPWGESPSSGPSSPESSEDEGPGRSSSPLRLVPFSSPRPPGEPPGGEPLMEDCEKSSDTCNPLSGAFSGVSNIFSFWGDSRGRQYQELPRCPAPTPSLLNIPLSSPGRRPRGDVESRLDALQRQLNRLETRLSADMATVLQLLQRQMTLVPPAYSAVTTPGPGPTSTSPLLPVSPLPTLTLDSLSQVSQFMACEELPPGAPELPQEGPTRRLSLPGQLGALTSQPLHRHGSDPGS
row,SMILES,"hERG current change (%, negative = inhibition) at 10uM"
1,Cc1noc(C)c1S(=O)(=O)N1CCCC(C(=O)Nc2ccc(Cl)cn2)C1 (stereo not shown),-26%
2,O=C1Nc2ccccc2C1=Nc1cccc(Cl)c1,16.7%
3,COCc1ccc(CN2CCC(C(=O)Nc3cccc(-c4cscn4)c3)CC2)o1,-18.9%
4,C=CC(COCc1ccccc1)N(Cc1ccc(OC)cc1)S(=O)(=O)c1ccccc1Br (stereo not shown),-1.75%
5,O=C(CNC(=O)C1CCCCC1)OCC(=O)c1ccc(F)cc1,5.44%
6,COc1cc(CNC(C)(C)CO)cc(Br)c1OCc1ccc(Cl)cc1Cl,-39.7%
7,O=C(NC(=S)Nn1cnc2c(cnn2-c2ccccc2)c1=O)c1ccc(Oc2ccccc2)cc1,16%
8,CN(Cc1ccccc1)C(=O)c1ccc(NC(=O)Cc2cccc(NC(=O)C3CCN(C(=O)C4CCCC4)CC3)c2)cc1,8.22%
9,CC1CCCN(CC(O)COCc2ccccc2)C1.Cl (stereo not shown),-1.07%
10,CCCn1c(N)c(Br)c(=O)[nH]c1=O,13.5%
11,C=C[C@@]1(C)CC(=O)[C@]2(O)[C@@]3(C)[C@@H](O)CCC(C)(C)[C@@H]3[C@H](OC(C)=O)[C@H](O)[C@@]2(C)O1,7.62%
12,S=C(c1c[nH]c2ccc(Br)cc12)N1CCOCC1,-9.38%
13,Cc1ccc(OCCNC(=O)c2ccccc2N)cc1,-0.662%
14,O=C(CSc1ccc(-c2cccnc2)nn1)N1CCCc2ccccc21,-34.9%
15,O=C1NCCN1CCNS(=O)(=O)c1cc(C(F)(F)F)cc(C(F)(F)F)c1,17.2%
16,O=C(CSc1nnc(Cc2ccccc2)n1Cc1ccco1)NC12CC3CC(CC(C3)C1)C2,-43.2%
17,Cn1c(/C=N/Nc2nc3ccccc3[nH]2)nc2ccccc21,-35.7%
18,CC(=O)OC[C@]12CCC(C)=C[C@H]1O[C@@H]1[C@H](O)[C@@H](OC(C)=O)[C@@]2(C)[C@]12CO2,3.74%
19,COc1cccc(OC)c1C(=O)NCCOc1cc(C)cc(C)c1,4.7%
20,COc1cc(NC(=O)c2ccccc2C)c(OC)cc1NC(=O)CN1CCOCC1,-7.78%
21,Cc1occc1C(=O)NC1CCCN(Cc2ccc(CC(C)C)cc2)C1 (stereo not shown),-38%
22,CSc1ccc(-c2c(C#N)c(N)nc3c2c(C)nn3-c2ccccc2)cc1,-10.5%

row,SMILES,"hERG current change (%, negative = inhibition) at 10uM"
1,COC(=O)CC1(Cc2ccccc2)C(=O)NC(=O)NC1=O,15.9%
2,O=C(CSCc1ccc(Cl)cc1)Nc1ccc(S(=O)(=O)N2CCCCCC2)cc1,6.72%
3,CCOC(=O)c1[nH]c2c(c1-c1ccc(OC)cc1)C(=O)CC(c1ccc(OC)c(OC)c1)C2 (stereo not shown),-10.9%
4,CN1C=CC=C/C1=C1\SC(=S)N(N)C1=O,26.4%
5,O=C(Nc1cccc(Cl)c1)NC1CC2CCC1C2 (stereo not shown),9.69%
6,CC1CC(C)CN(C(=O)/C(=C\c2ccccc2)c2ccccc2)C1 (stereo not shown),-27.4%
7,Cl.O=C(O)CCN1CCc2ccccc2C1c1cccs1 (stereo not shown),22.3%
8,O=C(O)c1ccc(-n2nncc2-c2ccco2)cc1,18.1%
9,CCn1c(=O)cc(OCC(=O)NCc2cccnc2)c2ccccc21,0.488%
10,COc1ccc(OCC(=O)Nc2ccccc2-c2ccccc2)cc1,-2.34%
11,COc1ccc(OCCN2CCOCC2)cc1,20.2%
12,COc1cccc(C2=NOC(C(=O)Nc3cccc(C(C)=O)c3)C2)c1OC (stereo not shown),1.69%
13,CCC1CCCCN1CCCNC(=O)c1ccc(CS(=O)(=O)Cc2ccccc2F)o1 (stereo not shown),3.29%
14,C/C(=C\C(=O)c1ccc(Cl)cc1)NCc1ccc2c(c1)OCO2,3.43%
15,CCOc1nc(C)ccc1-c1noc(-c2cccnc2)n1,20.9%
16,CN(C)c1ccc(C(=O)N2CCCC(CCC(=O)N3CCN(c4ccccn4)CC3)C2)cc1 (stereo not shown),-7.51%
17,COC(C(=O)Nc1ccnn1C1CCN(Cc2ccc(Cl)s2)CC1)c1ccccc1 (stereo not shown),-5.29%
18,Cc1cc(C)c(NC(=O)Cn2nnc(C(=O)NCc3ccco3)c2N)c(C)c1,13%
19,C[C@]12CC[C@@H]3c4cc(O)c(O)cc4CC[C@H]3[C@@H]1CC[C@@H]2O,24.1%
20,COc1ccc(CCNC(=O)COC(=O)Cc2cc(OC)c(OC)c(OC)c2)cc1,11.5%
21,CCOc1ccc(NC(=O)CSc2nc(O)c(C)c(=O)n2-c2ccc(F)cc2)cc1,-45.8%
